The list shows a part of the results.
B1: PhoQ; a variant is named by its letters at X, in order, P23837 (parent)
chain: MKKLLRLFFPLSLRVRFLLATAAVVLVLSLAYGMVALIGYSVSFDKTTFRLLRGESNLFYTLAKWENNKLHVELPENIDKQSPTMTLIYDENGQLLWAQRDVPWLMKMIQPDWLKSNGFHEIEADVNDTSLLLSGDHSIQQQLQEVREDDDDAEMTHSVAVNVYPATSRMPKLTIVVVDTIPVELKSSYMVWSWFIYVLSANLLLVIPLLWVAAWWSLRPIEALAKEVRELEEHNRELLNPATTRELTSLVRNLNRLLKSERERYDKYRTTLTDLTHSLKTPLXXLQXXLRSLRSEKMSVSDAEPVMLEQISRISQQIGYYLHRASMRGGTLLSRELHPVAPLLDNLTSALNKVYQRKGVNISLDISPEISFVGEQNDFVEVMGNVLDNACKYCLEFVEISARQTDEHLYIVVEDDGPGIPLSKREVIFDRGQRVDTLRPGQGVGLAVAREITEQYEGKIVAGESMLGGARMEVIFGRQHSAPKDE

Variants of: B1
Assay: enrichment ratio after two sorts for PhoP signalling (ratio (wild type AVST 3.29)); higher = more functional
Conditions: with PhoP (E. coli)

Variant | enrichment ratio
HWWA | ≤ 0.25
RYGA | ≤ 0.25
NMIL | ≤ 0.25
MPGH | ≤ 0.25
WPQP | ≤ 0.25
KVNW | ≤ 0.25
KFLW | ≤ 0.25
KERI | ≤ 0.25
YKQS | ≤ 0.25
AFHV | ≤ 0.25
KLEW | ≤ 0.25
DAIY | ≤ 0.25
PMHQ | ≤ 0.25
KRQS | ≤ 0.25
PVYG | ≤ 0.25
RNMV | ≤ 0.25
FMMK | ≤ 0.25
FLDK | ≤ 0.25
ITEV | ≤ 0.25
AMSS | 9.96
KGYF | ≤ 0.25
LNSA | ≤ 0.25
KCKS | ≤ 0.25
QPDM | ≤ 0.25
SDRK | ≤ 0.25

Variant | enrichment ratio
SIIK | ≤ 0.25
GSPV | ≤ 0.25
YAIF | ≤ 0.25
KTGY | ≤ 0.25
QSAV | 12.1
MKHQ | ≤ 0.25
RPMR | ≤ 0.25
YDAG | 0.819
NRKC | ≤ 0.25
HQIW | ≤ 0.25
IDTC | ≤ 0.25
NQMP | ≤ 0.25
GQPN | ≤ 0.25
PQEY | ≤ 0.25
WSEL | ≤ 0.25
MKCW | ≤ 0.25
STRW | ≤ 0.25
AIGN | 6.31
FMKA | 1.15
MAYS | 8.34
RRCD | ≤ 0.25
KQAR | ≤ 0.25
HMAF | ≤ 0.25
EGKT | ≤ 0.25
INEP | ≤ 0.25

Variant | enrichment ratio
ECGR | ≤ 0.25
RVMN | ≤ 0.25
SMWG | ≤ 0.25
NCCN | ≤ 0.25
NFIV | ≤ 0.25
SSSH | 10.4
WHIH | ≤ 0.25
YFVL | ≤ 0.25
GRMI | ≤ 0.25
LRCL | ≤ 0.25
GHGQ | ≤ 0.25
FMCW | ≤ 0.25
SACS | 10.7
DLGQ | ≤ 0.25
FQRP | ≤ 0.25
RRVH | ≤ 0.25
WHDF | ≤ 0.25
YMQC | ≤ 0.25
THFH | ≤ 0.25
YCIH | 0.311
EIYI | ≤ 0.25
WRHW | ≤ 0.25
YEGA | ≤ 0.25
GPMH | ≤ 0.25
AAPH | ≤ 0.25

Variant | enrichment ratio
YCYL | ≤ 0.25
PIWP | ≤ 0.25
PNGG | ≤ 0.25
QKGP | ≤ 0.25
KATS | ≤ 0.25
VWKD | ≤ 0.25
EYES | ≤ 0.25
WMAE | ≤ 0.25
IFPW | ≤ 0.25
VELW | ≤ 0.25
FDEV | ≤ 0.25
YPGG | ≤ 0.25
QVMT | ≤ 0.25
MHVP | ≤ 0.25
ASEW | ≤ 0.25
GAFY | ≤ 0.25
YWQR | ≤ 0.25
LYSC | ≤ 0.25
SMTK | 0.437
WVSV | ≤ 0.25
IDFI | ≤ 0.25
AHYA | ≤ 0.25
LAFE | ≤ 0.25
PMLM | ≤ 0.25
PHWW | ≤ 0.25

Variant | enrichment ratio
HWIK | ≤ 0.25
EDAY | ≤ 0.25
RPQG | ≤ 0.25
RLRL | ≤ 0.25
IVFY | ≤ 0.25
VKVG | ≤ 0.25
RECF | ≤ 0.25
IIMV | ≤ 0.25
IAKK | ≤ 0.25
EVNH | ≤ 0.25
YMRY | ≤ 0.25
AQTP | ≤ 0.25
TKWS | ≤ 0.25
VFMS | ≤ 0.25
MRRP | ≤ 0.25
SQFP | ≤ 0.25
VWYD | ≤ 0.25
PYHC | ≤ 0.25
FCLF | 2.32
EFVY | ≤ 0.25
PMMI | ≤ 0.25
ETQA | ≤ 0.25
YRGI | ≤ 0.25
YHQR | ≤ 0.25
KMGV | ≤ 0.25

Variant | enrichment ratio
PGQY | ≤ 0.25
IDHN | ≤ 0.25
DLEP | ≤ 0.25
FYSV | ≤ 0.25
KTYL | ≤ 0.25
GRIQ | ≤ 0.25
ECKG | ≤ 0.25
SRHI | ≤ 0.25
LVYP | ≤ 0.25
PKCL | ≤ 0.25
MFNH | ≤ 0.25
QLHQ | ≤ 0.25
NAFG | ≤ 0.25
IVLS | ≤ 0.25
YVIR | ≤ 0.25
PLRR | ≤ 0.25
GIRK | ≤ 0.25
YREC | ≤ 0.25
HPVR | ≤ 0.25
QVHG | ≤ 0.25
REKA | ≤ 0.25
YELY | 0.302
NCPH | ≤ 0.25
FCWV | ≤ 0.25
AFTT | ≤ 0.25

Variant | enrichment ratio
RYKA | ≤ 0.25
SNKG | ≤ 0.25
PRLF | ≤ 0.25
TWGT | ≤ 0.25
QATS | ≤ 0.25
VKSG | ≤ 0.25
MLIM | ≤ 0.25
HHKD | ≤ 0.25
GYDK | ≤ 0.25
RDAH | ≤ 0.25
NFNA | ≤ 0.25
HYDS | ≤ 0.25
HPGF | ≤ 0.25
QMAD | ≤ 0.25
KVDD | ≤ 0.25
ILAM | ≤ 0.25
GRCA | ≤ 0.25
ITAW | ≤ 0.25
YTQE | ≤ 0.25
YSMV | 10.7
MMWY | ≤ 0.25
IDPF | ≤ 0.25
VFTE | ≤ 0.25
KDNH | ≤ 0.25
EHFL | ≤ 0.25

Variant | enrichment ratio
FMHW | ≤ 0.25
NGHQ | ≤ 0.25
YYQF | ≤ 0.25
DPWD | ≤ 0.25
FHTE | ≤ 0.25
PMTS | ≤ 0.25
VDIH | ≤ 0.25
RHGQ | ≤ 0.25
CSYI | 6.37
TFLM | 1.51
KYSN | ≤ 0.25
MMHI | ≤ 0.25
SHEC | ≤ 0.25
FHQA | ≤ 0.25
HAIY | ≤ 0.25
GLWI | ≤ 0.25
VNPT | ≤ 0.25
VMIR | ≤ 0.25
YVLE | ≤ 0.25
LWMF | ≤ 0.25

Reference: a collection of fitness landscapes (doi:10.1126/science.1257360)
